Source: PubChem BioAssay AID488969 (Vanderbilt High Throughput Screening Facility, 2010)
In all, about 110,000 compounds were measured (“z-score”: median about -0.1, highest 2% from about 2 on). Some of the results follow. Activity calls are given as the source filed them.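 How the source made its calls: active means z-score in the third read window above 3 or below -3; inactive means the rest.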

Target: Metabotropic glutamate receptor 8 (Rattus norvegicus) (UniProt P70579)
Assay: mGluR8 Gi/Go-coupled signaling modulation – cell-based, rat, thallium flux, HTS, primary screen (AID 488969)
Settings: HEK293 rat mGluR8, GIRK (G protein-gated inwardly rectifying potassium channel) thallium flux, FluoZin2; at 10 µM; stronger effect = higher value; submaximal glutamate (EC20) added with thallium

Sequence of UniProt P70579 (P70579 whole entry, looked up): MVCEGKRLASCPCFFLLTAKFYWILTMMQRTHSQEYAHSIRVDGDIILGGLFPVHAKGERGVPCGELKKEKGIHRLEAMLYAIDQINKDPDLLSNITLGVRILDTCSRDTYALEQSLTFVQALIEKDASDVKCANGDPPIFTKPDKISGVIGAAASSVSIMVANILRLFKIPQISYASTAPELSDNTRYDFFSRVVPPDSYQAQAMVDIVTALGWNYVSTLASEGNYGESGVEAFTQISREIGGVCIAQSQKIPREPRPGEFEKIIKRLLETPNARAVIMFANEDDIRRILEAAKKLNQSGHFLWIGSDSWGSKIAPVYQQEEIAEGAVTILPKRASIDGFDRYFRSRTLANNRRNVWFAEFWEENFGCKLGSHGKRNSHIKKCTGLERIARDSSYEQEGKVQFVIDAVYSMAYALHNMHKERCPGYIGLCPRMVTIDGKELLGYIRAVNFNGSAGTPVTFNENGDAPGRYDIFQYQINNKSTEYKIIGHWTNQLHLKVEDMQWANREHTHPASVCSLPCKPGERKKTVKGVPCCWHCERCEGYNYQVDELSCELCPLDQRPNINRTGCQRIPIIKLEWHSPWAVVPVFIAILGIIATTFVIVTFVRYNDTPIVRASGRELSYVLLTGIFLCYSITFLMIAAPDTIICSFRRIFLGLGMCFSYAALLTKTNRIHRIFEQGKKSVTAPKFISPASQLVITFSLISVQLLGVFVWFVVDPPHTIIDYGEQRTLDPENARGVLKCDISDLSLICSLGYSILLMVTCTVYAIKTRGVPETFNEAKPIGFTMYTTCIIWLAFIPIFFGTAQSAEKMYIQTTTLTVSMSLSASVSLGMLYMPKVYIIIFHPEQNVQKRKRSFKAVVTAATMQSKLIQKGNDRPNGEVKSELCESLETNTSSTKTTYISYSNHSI

In order of rising z-score:
1. N#Cc1ccccc1CN1C(=O)S/C(=C/c2cccn2-c2cccc(C(=O)O)c2)C1=O  -2.19
2. CCOC(=O)C(Sc1nnc2c3ccccc3n(CC)c2n1)C(=O)OCC  -1.73
3. COc1cc(/C=C2\S/C(=N/S(=O)(=O)c3ccccc3)NC2=O)c([N+](=O)[O-])cc1OC  -1.25
4. c1ccc(-c2nnc3n2CCCC3)cc1  -0.78
5. N=C1C(c2ccccc2)=C(O)CN1c1ccc2c(c1)OCO2  -0.681
6. COc1cc2c(cc1NC(=O)C(C)Sc1nc3ccccc3n1C)oc1ccccc12 (centres undefined)  -0.642
7. Cc1c(NC(=O)CSc2nnc(C(C)Oc3ccc(Cl)cc3)n2-c2ccccc2)c(=O)n(-c2ccccc2)n1C (centres undefined)  -0.583
8. COC(=O)c1ccc(/C=C2\N=C(SC)SC2=O)cc1  -0.529
9. CN(C)S(=O)(=O)c1ccc(C(=O)Nc2ccccc2OC(F)(F)C(F)F)cc1  -0.525
10. O=C(Nc1ccc(N2CCCC2)cc1)c1ccc(Br)o1  -0.462
11. CC1(C)Cc2ccccc2C(N)=C1C#N  -0.448
12. COC(=O)c1ccc(NC(=O)CCn2cccc2)cc1  -0.418
13. COc1ccc(-c2nnc3c4ccccc4c(C)nn23)cc1S(=O)(=O)N1CCN(CCO)CC1  -0.411
14. O=c1[nH]c2ccc(Cl)cc2c(-c2ccccc2)c1CN1CCOCC1  -0.384
15. CCCNC(=O)CCC(=O)Nc1ncc(-c2ccc(C)cc2)n1C  -0.382
16. O=C(c1ccco1)N1CCN(C(c2coc3ccc(Cl)cc3c2=O)c2nnnn2C2CCCC2)CC1 (centres undefined)  -0.379
17. CCC(CC)NC(=O)CON=C1c2ccccc2-c2ccccc21  -0.376
18. CC(=O)C1=C(O)C(=O)N(c2cccc(C(=O)O)c2)C1c1ccccc1F (centres undefined)  -0.361
19. Cc1cc(Oc2ccc(C)c(Cl)c2)nc(SCC(=O)c2ccccc2)n1  -0.36
20. COc1ccc(CCNC(=O)COC(=O)C23CC4CC(CC(Br)(C4)C2)C3)cc1  -0.354
21. COc1ccc(-n2c(Cc3cccn3C)nnc2SCC(=O)Nc2ccccc2C)cc1  -0.329
22. O=C(CCCc1ccccc1)NC1CCSC1=O (centres undefined)  -0.328
23. COc1cccc(CNCC(O)(c2ccc(Cl)cc2)c2ccc(Cl)cc2)c1  -0.327
24. COc1ccc(S(=O)(=O)N2Cc3ccccc3CC2C(=O)N2CCOCC2)cc1OC (centres undefined)  -0.288
25. COC(=O)NNC(=O)c1ccc(Cl)cc1Cl  -0.27
26. COc1ccc(CNc2cc([N+](=O)[O-])ccc2OC)cc1  -0.252
27. CCN(CC)S(=O)(=O)c1ccc(S(=O)(=O)N(CC(=O)Nc2ccccc2)CC2CCCO2)cc1 (centres undefined)  -0.241
28. CCn1c(SCCN2CCCCC2)nnc1-c1ccc(S(=O)(=O)N2CCOCC2)cc1  -0.238
29. Cc1ccc(C(=O)COC(=O)CCCC(=O)NC2CCCCC2)cc1[N+](=O)[O-]  -0.237
30. COc1ccc(C(=O)c2sc(Nc3cccc(OC)c3)c(C(=O)Nc3cccc(C)c3C)c2N)cc1  -0.228
31. COc1ccc(C(=O)/C=C/c2ccc(OC)c(COc3ccccc3F)c2)cc1  -0.224
32. Cc1ccc(NC(=O)c2cc(-c3ccc(C)o3)nc3ccccc23)cc1  -0.215
33. Cc1ccc(S(=O)(=O)NCCN2CCOCC2)cc1  -0.213
34. CCCC(=O)N1CCc2cc(-c3nc(N)sc3C)ccc21  -0.205
35. Cn1cc(SCC(=O)N2CCN(c3ccccc3)CC2)c2ccccc21  -0.202
36. CCOC(=O)/C(C#N)=C/c1ccc(OC(=O)c2ccco2)c(OCC)c1  -0.201
37. COc1ccccc1/C=C/C(=O)c1ccc(Cl)cc1  -0.189
38. O=C(O)c1cccc(N2CCCC2)c1  -0.186
39. CCC(C)c1ccc2oc(-c3ccc(NC(=O)c4ncn[nH]4)cc3)nc2c1 (centres undefined)  -0.184
40. O=C(CCN1C(=O)/C(=C/c2cccc(Br)c2)SC1=S)NNC(=O)c1cccnc1  -0.178
41. CCc1ccc(-c2cc(C(=O)Nc3c(C)n(C)n(-c4ccccc4)c3=O)c3ccccc3n2)s1  -0.167
42. Cc1ccc(S(=O)(=O)N2CCOCC2)cc1NC(=O)CN1CCN(c2ccc(O)cc2)CC1  -0.162
43. CCC(=O)Nc1ccc(Oc2ccc3c(c2)C(=O)NC3=O)cc1  -0.161
44. COc1ccc(NC(C)C(=O)N/N=C/c2ccccc2OCc2cccc(Br)c2)cc1 (centres undefined)  -0.15
45. O=C(NCCCN=C1NS(=O)(=O)c2ccccc21)c1ccco1  -0.143
46. Cc1ccc(C(=O)NCc2ccc3c(c2)OCO3)cc1N1CCCC1=O  -0.117
47. CN(C)NC(=S)Nc1ccc(Cl)cc1  -0.117
48. CN(C(=O)CSc1nc2c(c(=O)[nH]1)CCCC2)C1CCCCC1  -0.116
49. COc1cccc2cc(C(=O)NCc3ccccn3)c(=O)oc12  -0.114
50. CC(c1ccccc1)n1cc(C(=O)NCC2CCCO2)nn1 (centres undefined)  -0.108
51. Cc1ccc(C(=O)N2CCN(c3ccc(C(F)(F)F)cn3)CC2)c(C)c1  -0.0998
52. COc1ccc(C(=O)OC2CCN(c3ncc(C(F)(F)F)cc3Cl)CC2)cc1  -0.0959
53. Cc1ccc(CSc2nnnn2C)cc1  -0.0724
54. C/C(=C\c1ccco1)C1C(C#N)=C(N)OC2=C1C(=O)CC(C)(C)C2 (centres undefined)  -0.0699
55. O=C(Cn1nc(Cc2cccnc2)c2ccccc2c1=O)Nc1ccc2c(c1)OCO2  -0.0637
56. Cc1nn(CC#N)c(=O)n1-c1ccccc1  -0.0588
57. Cc1nnc(NC(=O)Cn2cnc3c2c(=O)n(C)c(=O)n3C)s1  -0.0583
58. Cc1ccc(C(=O)CC(Nc2ccc(F)cc2)c2ccccc2)cc1 (centres undefined)  -0.0356
59. O=C(NCc1ccco1)c1cc(C(=O)C2CCCCC2)c[nH]1  -0.0253
60. S=C(NCc1ccccn1)Nc1cccc(Cl)c1  -0.0144
61. COc1ccc(Nc2cc(C(=O)NCc3ccco3)c3ccccc3n2)cc1  -0.00632
62. CNC(=O)c1ccccc1S(=O)c1ccccc1C#N (centres undefined)  -0.00179
63. CCOC(=O)C1CCN(S(=O)(=O)c2ccc(C(=O)OC)cc2)CC1  0.0234
64. C=CCN(CC=C)S(=O)(=O)c1ccc(NC(=S)NC(=O)/C=C/c2cccc3ccccc23)cc1  0.0256
65. CCOCCc1nnc(NC(=O)c2ccc(OC)c(OC)c2)s1  0.0276
66. COc1ccccc1NS(=O)(=O)c1cc(NC(=O)c2cccs2)ccc1N1CCCCC1  0.0282
67. COC(=O)c1ccc(NC(=O)CSc2ccccn2)cc1  0.0306
68. CCOC(=O)C(NC(=O)c1ccc(OC)cc1)(Nc1cc(C)on1)C(F)(F)F (centres undefined)  0.0402
69. CCOC(=O)C(C(=O)OCC)C1CS(=O)(=O)CC1C(C(=O)OCC)C(=O)OCC (centres undefined)  0.0478
70. CN(CC(=O)NCc1ccccc1)S(=O)(=O)c1cnc[nH]1  0.053
71. Cc1ccc(N(C(=O)c2ccc(Br)o2)C2C=CS(=O)(=O)C2)cc1 (centres undefined)  0.0636
72. Cc1ccc(C)c2c1cc(C)c1nnc(SCc3ccccn3)n12  0.0637
73. O=C(CSc1nc(-c2ccccc2)cs1)Nc1nccs1  0.0703
74. Cc1cccc(C)c1NC(=O)C1(N(Cc2ccco2)C(=O)c2ccccn2)CCCC1  0.0787
75. COc1ccc(Cn2c(-c3ccc(C)cc3)nc3c(c(=O)c4ccccc4n3C)c2=O)cc1  0.0797
76. N#Cc1c(-c2ccccc2)ccn(Cc2ccc(Cl)cc2)c1=O  0.097
77. CC(=O)Nc1ccc(S(=O)(=O)NCc2cn3ccsc3n2)cc1  0.124
78. O=C(Nn1c(=O)[nH]c2ccsc2c1=O)c1ccccc1  0.125
79. CCOc1ccccc1N(CC(=O)N1CCOCC1)S(=O)(=O)c1ccc(SC)cc1  0.146
80. COc1ccc(CC(=O)NCc2cccs2)cc1  0.187
81. CCCCn1nnnc1SCC(=O)c1ccc(C)c(C)c1  0.192
82. CC(C)NCCCOc1ccc(C(C)(C)c2ccccc2)cc1  0.192
83. CC1(C(=O)N(CC(=O)NC2CCCC2)Cc2ccco2)CC(=O)N=C2C=CC=CN21 (centres undefined)  0.194
84. CC(C)CNC(=O)CSc1nnc(-c2cccc(S(=O)(=O)N3CCCCC3)c2)o1  0.198
85. CC(C)CCOc1ccc(C(=O)C[N+]2(C)CCOCC2)cc1  0.236
86. O=C(NCCCNCc1ccccc1)/C(=N\O)c1ccccc1  0.267
87. CCn1nc(C)c(NC(=O)CSc2nnc(-c3ccco3)n2C)c1C  0.267
88. COc1ccc(C(=O)NC(=S)N2CCN(c3ccc([N+](=O)[O-])cc3)CC2)cc1  0.274
89. CC(=O)OC(C(=O)NCc1ccco1)c1cccnc1 (centres undefined)  0.298
90. COc1cccc(/C=N/NC(=O)c2cc3c(OC)cccc3[nH]2)c1O  0.316
91. C/C(N)=C(/C#N)C(=O)CSc1nnnn1-c1ccc(C)cc1  0.331
92. Cc1ccccc1-n1c(=O)cc(N2CCc3ccccc32)[nH]c1=O  0.356
93. Cc1oc(-c2ccccc2)nc1Cn1cccc1C1=NC(c2ccccc2)CO1 (centres undefined)  0.517
94. Cc1cc(C2C(C#N)=C(N)Oc3n[nH]c(C)c32)c(C)s1 (centres undefined)  0.591
95. OCCN(Cc1ccccc1)CC1CCCCC1  0.614
96. COc1cc(S(=O)(=O)N2CCOCC2)cc(C(=O)c2nccn2C)c1OC  0.65
97. CCOC(=O)N1CCC(NC(=O)Cn2nc(Cc3ccncc3)c3ccccc3c2=O)CC1  0.713
98. COn1c(SCc2ccc(Cl)cc2)nc2ccccc2c1=O  0.722
99. CCC(=O)Nc1cccc(-c2nnc(-c3cccc(NC(=O)CC)c3)o2)c1  0.735
100. Cc1noc(C)c1CS(=O)(=O)c1ccc(Br)cc1  0.923
101. COCCNC(=O)CCn1nc(-c2ccc(Cl)cc2)ccc1=O  0.962
102. CC1(C)CC(=O)C2=C(C1)N(N1CCOCC1)C(N)=C(C#N)C2c1cccnc1 (centres undefined)  0.973
103. CCCn1c(=O)c(-c2ccccc2)c(O)c2ccccc21  1.54
104. CCOC(=O)CSc1n[nH]c(NC(=O)c2ccc(F)cc2)n1  1.85
105. CCCCn1c(NC(=S)Nc2ccccc2)nc2ccccc21  2.55

With `Cc1nc2nc(Cc3ccccc3)[nH]n2c(=O)c1Cc1ccccc1` the z-score was active: -3.69.
In the case of `O=c1c(-c2ccc(Cl)cc2)[n+]([O-])c2ccccc2n1O`, the z-score is reported as active: 14.
In the case of `Cc1ccc(CC(=O)N2CCN(c3cccc(C(F)(F)F)c3)CC2)cc1`, the z-score is reported as active: 6.97.
In the case of `O=C(NNC(=O)c1sccc1-n1cccc1)c1ccc(Cl)cc1`, the z-score is reported as active: 3.06.
